Test results from article PMC10957897, “An evolutionary mechanism to assimilate new nutrient sensors into the mTORC1 pathway” (Nature Communications, 2024).
These are yes or no findings as the source states them, for the method shown. Binding seen in cells or lysates may run through a third protein. Some entries that bind do so weakly or less than the wild type. For part of these data: Sequences can lack the tags named with a protein.

Protein sequences, listed by entry. Tags and fused reporters are not part of them. Lines headed by an entry give the natural chain unless they say otherwise; changes in a name come on top.
UniProt Q9VKK2: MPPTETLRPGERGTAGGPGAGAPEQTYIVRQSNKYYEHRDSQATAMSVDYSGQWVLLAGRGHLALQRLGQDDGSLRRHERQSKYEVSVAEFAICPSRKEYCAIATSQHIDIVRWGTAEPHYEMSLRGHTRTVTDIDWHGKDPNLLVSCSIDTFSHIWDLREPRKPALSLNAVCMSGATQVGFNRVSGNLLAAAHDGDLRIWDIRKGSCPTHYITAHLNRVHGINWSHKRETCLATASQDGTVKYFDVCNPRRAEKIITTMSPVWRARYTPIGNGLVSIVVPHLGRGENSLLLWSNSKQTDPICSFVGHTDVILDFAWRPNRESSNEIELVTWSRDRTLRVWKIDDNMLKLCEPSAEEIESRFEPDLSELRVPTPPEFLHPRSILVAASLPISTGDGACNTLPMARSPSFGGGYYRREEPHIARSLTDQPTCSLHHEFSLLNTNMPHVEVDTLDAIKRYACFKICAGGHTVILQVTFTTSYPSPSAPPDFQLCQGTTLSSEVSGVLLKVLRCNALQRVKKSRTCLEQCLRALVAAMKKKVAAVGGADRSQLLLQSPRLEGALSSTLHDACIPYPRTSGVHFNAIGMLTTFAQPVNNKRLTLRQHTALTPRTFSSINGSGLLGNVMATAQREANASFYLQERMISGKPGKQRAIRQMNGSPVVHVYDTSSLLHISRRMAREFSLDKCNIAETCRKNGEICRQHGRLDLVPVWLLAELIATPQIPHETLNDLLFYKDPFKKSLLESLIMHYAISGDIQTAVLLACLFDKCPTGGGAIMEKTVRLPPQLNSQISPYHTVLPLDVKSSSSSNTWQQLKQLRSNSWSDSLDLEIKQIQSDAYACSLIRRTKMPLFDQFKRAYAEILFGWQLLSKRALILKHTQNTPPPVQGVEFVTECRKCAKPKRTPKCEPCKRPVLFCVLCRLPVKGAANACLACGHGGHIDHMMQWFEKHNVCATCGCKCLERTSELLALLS
UniProt Q9XZ25: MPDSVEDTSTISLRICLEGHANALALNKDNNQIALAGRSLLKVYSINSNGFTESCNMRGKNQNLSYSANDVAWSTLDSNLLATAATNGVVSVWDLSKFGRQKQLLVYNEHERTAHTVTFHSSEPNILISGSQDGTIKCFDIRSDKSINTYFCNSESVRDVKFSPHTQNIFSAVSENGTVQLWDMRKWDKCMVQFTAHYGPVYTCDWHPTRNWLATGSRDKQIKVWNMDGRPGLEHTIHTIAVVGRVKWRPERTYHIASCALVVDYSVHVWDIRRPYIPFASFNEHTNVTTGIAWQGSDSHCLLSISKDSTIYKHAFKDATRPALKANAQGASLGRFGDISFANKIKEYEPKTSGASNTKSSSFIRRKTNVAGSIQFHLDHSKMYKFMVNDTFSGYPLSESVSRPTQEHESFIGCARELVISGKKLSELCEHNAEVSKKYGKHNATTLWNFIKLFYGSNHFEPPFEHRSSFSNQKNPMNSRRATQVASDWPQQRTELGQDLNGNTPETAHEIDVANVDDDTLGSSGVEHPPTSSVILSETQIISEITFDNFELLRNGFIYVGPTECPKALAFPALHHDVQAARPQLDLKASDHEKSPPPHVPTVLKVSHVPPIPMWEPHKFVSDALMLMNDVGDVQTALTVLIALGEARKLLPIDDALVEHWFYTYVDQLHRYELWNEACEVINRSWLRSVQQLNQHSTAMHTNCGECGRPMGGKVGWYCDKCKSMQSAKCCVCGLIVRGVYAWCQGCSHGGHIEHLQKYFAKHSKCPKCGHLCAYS
UniProt Q9VQ89: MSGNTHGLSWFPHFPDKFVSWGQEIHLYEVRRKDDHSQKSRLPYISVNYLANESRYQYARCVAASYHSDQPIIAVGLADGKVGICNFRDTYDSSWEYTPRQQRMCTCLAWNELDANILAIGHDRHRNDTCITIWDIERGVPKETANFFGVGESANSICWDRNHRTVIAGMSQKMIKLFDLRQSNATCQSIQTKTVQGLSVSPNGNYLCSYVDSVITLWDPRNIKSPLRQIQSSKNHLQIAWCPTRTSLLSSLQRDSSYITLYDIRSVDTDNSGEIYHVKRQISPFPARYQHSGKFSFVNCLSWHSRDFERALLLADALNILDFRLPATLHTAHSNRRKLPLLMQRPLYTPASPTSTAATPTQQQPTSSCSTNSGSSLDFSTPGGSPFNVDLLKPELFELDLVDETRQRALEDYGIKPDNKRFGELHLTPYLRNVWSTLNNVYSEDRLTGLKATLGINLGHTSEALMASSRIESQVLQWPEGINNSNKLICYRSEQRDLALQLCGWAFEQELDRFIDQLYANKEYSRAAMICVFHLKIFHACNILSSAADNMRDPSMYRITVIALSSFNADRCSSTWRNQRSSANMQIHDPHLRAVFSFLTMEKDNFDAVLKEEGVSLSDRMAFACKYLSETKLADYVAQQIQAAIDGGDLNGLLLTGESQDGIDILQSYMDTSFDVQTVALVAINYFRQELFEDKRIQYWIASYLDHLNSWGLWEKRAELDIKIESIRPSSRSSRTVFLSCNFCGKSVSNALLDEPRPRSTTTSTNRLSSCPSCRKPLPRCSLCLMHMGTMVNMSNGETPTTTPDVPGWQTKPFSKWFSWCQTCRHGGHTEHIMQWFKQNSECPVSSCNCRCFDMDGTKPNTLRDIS
UniProt Q7K2X8: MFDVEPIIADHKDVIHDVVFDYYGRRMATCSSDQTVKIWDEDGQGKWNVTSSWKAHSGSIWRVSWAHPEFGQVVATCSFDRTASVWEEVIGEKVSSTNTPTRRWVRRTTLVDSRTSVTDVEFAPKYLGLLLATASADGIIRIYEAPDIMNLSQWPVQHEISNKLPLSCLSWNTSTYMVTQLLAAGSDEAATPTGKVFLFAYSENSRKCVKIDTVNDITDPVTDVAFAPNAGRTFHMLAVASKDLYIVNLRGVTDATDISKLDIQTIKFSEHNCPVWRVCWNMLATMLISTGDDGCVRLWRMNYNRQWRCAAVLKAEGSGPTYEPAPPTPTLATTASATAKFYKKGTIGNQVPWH
UniProt Q9V3J4: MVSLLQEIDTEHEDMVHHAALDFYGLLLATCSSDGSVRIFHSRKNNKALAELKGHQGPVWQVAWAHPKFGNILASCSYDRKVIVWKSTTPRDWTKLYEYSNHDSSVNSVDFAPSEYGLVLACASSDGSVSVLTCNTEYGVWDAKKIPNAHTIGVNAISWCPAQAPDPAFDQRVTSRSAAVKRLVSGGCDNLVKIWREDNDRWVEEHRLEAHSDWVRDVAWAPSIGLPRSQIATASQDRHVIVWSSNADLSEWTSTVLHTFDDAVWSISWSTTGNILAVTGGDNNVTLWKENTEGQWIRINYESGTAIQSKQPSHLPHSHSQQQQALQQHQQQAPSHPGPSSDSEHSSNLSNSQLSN

Experiments:
[1] = target: T1, dGATOR2 complex, transiently expressed in HEK-293T cells (D. melanogaster) (UniProt Q9VKK2+Q9XZ25+Q9VQ89+Q7K2X8+Q9V3J4); test: co-IP; in vitro dissociation: a mixture with 1 mM of each amino acid added directly to the FLAG immunoprecipitates from HEK-293T cells
[2] = target: dWDR24-Mio-Nup44A subcomplex (D. melanogaster) (UniProt Q9XZ25+Q9VQ89+Q7K2X8); test: co-IP; individual dGATOR2 subunits and subcomplexes tested for co-immunoprecipitation of Unmet (Supplementary Fig. 5a); details not shown
[3] = target: T1, dGATOR2 complex, transiently expressed in HEK-293T cells (D. melanogaster); test: co-IP; in vitro dissociation: sinefungin (SFG; 1 mM in Fig. 3d) added directly to the FLAG immunoprecipitates from HEK-293T cells, 30 min, 4 C, cytosolic buffer
[4] = target: T1, dGATOR2 complex, transiently expressed in HEK-293T cells (D. melanogaster); test: co-IP; anti-FLAG immunoprecipitates from HEK-293T cells transiently expressing FLAG-tagged GATOR2 and the sensor cDNAs; full RPMI or RPMI lacking leucine, methionine or amino acids; SAH or carnosine added to the immunoprecipitates had no effect
[5] = target: T1, dGATOR2 complex, transiently expressed in HEK-293T cells (D. melanogaster); test: condition: only with 1 mM SAM added to the immunoprecipitates; co-IP; in vitro dissociation: 1 mM SAM added directly to the FLAG immunoprecipitates from HEK-293T cells, 30 min, 4 C, cytosolic buffer (0.1% Triton, 40 mM HEPES pH 7.4, 10 mM NaCl, 150 mM KCl, 2.5 mM MgCl2)
[6] = target: T1, dGATOR2 complex, transiently expressed in HEK-293T cells (D. melanogaster); test: condition: only with a mixture containing 1 mM of each amino acid; co-IP; in vitro dissociation: a mixture with 1 mM of each amino acid added directly to the FLAG immunoprecipitates from HEK-293T cells
[7] = target: T1, dGATOR2 complex, transiently expressed in HEK-293T cells (D. melanogaster); test: co-IP; in vitro dissociation: 1 mM SAM added directly to the FLAG immunoprecipitates from HEK-293T cells, 30 min, 4 C, cytosolic buffer (0.1% Triton, 40 mM HEPES pH 7.4, 10 mM NaCl, 150 mM KCl, 2.5 mM MgCl2)

B1: HA-Unmet, transiently expressed in HEK-293T cells (protein, UniProt Q9I7X6 1-456)
chain: MSSMDCATFPMHPKMDEQLARTFVINEEEEEKHIQKVQNAFLYYGPYACQRLKRSMDYLNSLSGEDQIMLAKYRGHLECVRTCIDRNQAVIREILRGRVLYPTDEATGDPSEFDEPPPNVRHGDMDQIDIPFDEADVEPLKILKAQSTLKLIARDWSTEGALEREQSYKPIIDSIVAYFKHSDFELKDIKILVPGAGLGRLTYELACLGYSCEGNEFSYFMLIASNFVLNLCDNENKYVLYPWVHQYVNNLRREDQVAPVRFPDVCPLKNPPKGHFEIAAGDFLEVYKTPNAYNCVATCFFIDCANNVIDFIRTIYKILVPGGIWVNLGPLLYHFSDVSGQNSIEPAFEDLCIIMESVGFVIEKSRTGIRTKYAQNPSSMKQSEYQSLFWVCRKPDLFEEQRGKRKASREPHDLIVREDSEEEGEQQPERNETEEKQQLKPLATANCETEIKEQPS
Question: Which results are given for B1?
Answer: binding [1]: binds; binding [2]: binds; binding [3]: no binding (condition: with sinefungin (SFG)); binding [4]: binds; binding [5]: no binding

B2: dSestrin, transiently expressed in HEK-293T cells (protein, UniProt Q9W1K5 1-497)
chain: MYYAVDYYADMGQISQDCFAATQTGASDFDMDELDDLDQVTQVIGYHPQFHDHFLATQNFIMKGDGPLPNDYRYYLAIIAAARHQCPYLVKRYEKEFINQGGDSAWLGGLDFIPAKLRAIYDINKILAHRPWLLRKEHIERLTKGKNSWSLSEVVHAMVLLSHFHSLSSFVFSCGLTQKLDGLSSPKLKSPPAAVAALAPTILITPTSPTEPQKGKPVLAEISLNNANPDYDSQTAASSNGGAPPDSANAVADGPDATTLNGYLATAQQLPQQHGISVETLMERMKVLSQKQDECSEAELSSRFQKVEQQTAELAAVTPEAAVGVPTNLSHYVDDANFIYQDFARRGTESINTFRIQDYSWEDHGYSLVDGLYNDVGIFLDAKFRAAYNLTYCTMGGIKNVDTSKFRRAIWNYIQCIYGIRHDDYDYGEVNQLLVRPLKMFIKTACCFPERITTKDYDSVLVELQDSEKVHVNLMIMEARNQAELLYALREIMRYMT
Question: What does the source list for B2?
Answer: binding [6]: no binding; binding [7]: binds; binding [4]: binds

B3: Unmet G195D (protein, UniProt Q9I7X6 1-456)
chain: MSSMDCATFPMHPKMDEQLARTFVINEEEEEKHIQKVQNAFLYYGPYACQRLKRSMDYLNSLSGEDQIMLAKYRGHLECVRTCIDRNQAVIREILRGRVLYPTDEATGDPSEFDEPPPNVRHGDMDQIDIPFDEADVEPLKILKAQSTLKLIARDWSTEGALEREQSYKPIIDSIVAYFKHSDFELKDIKILVPDAGLGRLTYELACLGYSCEGNEFSYFMLIASNFVLNLCDNENKYVLYPWVHQYVNNLRREDQVAPVRFPDVCPLKNPPKGHFEIAAGDFLEVYKTPNAYNCVATCFFIDCANNVIDFIRTIYKILVPGGIWVNLGPLLYHFSDVSGQNSIEPAFEDLCIIMESVGFVIEKSRTGIRTKYAQNPSSMKQSEYQSLFWVCRKPDLFEEQRGKRKASREPHDLIVREDSEEEGEQQPERNETEEKQQLKPLATANCETEIKEQPS
Question: Which results are given for B3?
Answer: binding [3]: binds; binding [7]: binds; binding [4]: binds

B4: Unmet E30A (protein, UniProt Q9I7X6 1-456)
chain: MSSMDCATFPMHPKMDEQLARTFVINEEEAEKHIQKVQNAFLYYGPYACQRLKRSMDYLNSLSGEDQIMLAKYRGHLECVRTCIDRNQAVIREILRGRVLYPTDEATGDPSEFDEPPPNVRHGDMDQIDIPFDEADVEPLKILKAQSTLKLIARDWSTEGALEREQSYKPIIDSIVAYFKHSDFELKDIKILVPGAGLGRLTYELACLGYSCEGNEFSYFMLIASNFVLNLCDNENKYVLYPWVHQYVNNLRREDQVAPVRFPDVCPLKNPPKGHFEIAAGDFLEVYKTPNAYNCVATCFFIDCANNVIDFIRTIYKILVPGGIWVNLGPLLYHFSDVSGQNSIEPAFEDLCIIMESVGFVIEKSRTGIRTKYAQNPSSMKQSEYQSLFWVCRKPDLFEEQRGKRKASREPHDLIVREDSEEEGEQQPERNETEEKQQLKPLATANCETEIKEQPS
Question: How did the binding [4] turn out when B4 was run?
Answer: no binding
